In PubChem BioAssay AID1814 (Broad Institute, 2009):
In all, about 300,000 compounds went through this assay and about 22,000 (7.3%) were called active. The shares of active, inactive and inconclusive entries below differ from those in the screen. Rule as the data show it: active = activity score below about -60%; inconclusive = mostly about -28% to -61%; inactive = positive scores.

Assay: Activators via SNCA 5'UTR binding, MLPCN (AID 1814)
Conditions: alpha-synuclein 5'UTR reporter, activators screen; hits give low values; tested at 7.5 µM
In the case of `Brc1ccc(-c2nc(-c3ccccn3)no2)o1`, the activity score is reported as inactive: 79.5%.
For `CCOc1cccc(C(=O)Nc2cccc(C(C)=O)c2)c1`, the activity score was active: -151%.
In the case of `O=C(/C=C/Nc1cccc(C(F)(F)F)c1)c1ccc(Oc2ncccn2)cc1`, the activity score is reported as active: -93.7%.
For `CCn1ncc(CN2CCN(Cc3cccc(OC)c3)C(CCO)C2)c1C` (configuration not stated), the activity score was inconclusive: -43.8%.
With `O=C(NC(CSCc1ccccc1)C(=O)N/N=C/c1ccc(O)cc1O)c1ccc([N+](=O)[O-])cc1` (configuration not stated) the activity score was inactive: 83.7%.
In the case of `CCn1cc(C2=NC(C(C)C)CO2)c2ccccc21` (configuration not stated), the activity score is reported as inconclusive: -42.6%.
With `CCOC(=O)C1CCCCN1C(=O)CCc1c(C)nc2cc(-c3ccccc3)nn2c1C` (configuration not stated) the activity score was inactive: 75.9%.
For `CC(C)NC(=O)c1ccccc1-c1nc(-c2ccccc2Cl)no1`, the activity score was inconclusive: -34.3%.
With `COc1cccc(/C=C2\SC(=S)N(N3CCOCC3)C2=O)c1OC` the activity score was inconclusive: -46.8%.
With `COc1cc(N=Nc2ccc3ccccc3c2)ccc1O` the activity score was active: -144%.
With `CCCc1nnc(NC(=O)c2c(O)c3c([nH]c2=O)CCCC3)s1` the activity score was active: -75%.
For `CNc1c(NC(=O)c2ccc3c(c2)OCO3)c(=O)oc2ccccc12`, the activity score was inconclusive: -49.7%.
With `c1ccc(Cn2c(Sc3nnnn3-c3ccccc3)nnc2-c2ccccc2)cc1` the activity score was active: -73.9%.
With `CCOc1ccccc1NC1=CC(=O)CC(c2ccccc2)C1` (configuration not stated) the activity score was inconclusive: -57.7%.
With `O=C(c1ccccc1-c1nc(-c2ccccc2)no1)N1CCOCC1` the activity score was inconclusive: -42.9%.
For `O=[N+]([O-])c1ccc(Sc2cccc[n+]2[O-])c2nonc12`, the activity score was inactive: 84.8%.
In the case of `O=C(c1ccc(-c2ccccc2Cl)s1)N1CCOCC1`, the activity score is reported as inconclusive: -55.7%.
With `Cc1c(Cl)c([N+](=O)[O-])nn1CCCC(=O)Nc1sc2c(c1C(N)=O)CCC(C)C2` (configuration not stated) the activity score was inconclusive: -43.9%.
With `COc1cc(C2C(C#N)=C(N)Oc3cc4c(cc32)OCO4)cc(OC)c1OC` (configuration not stated) the activity score was inactive: 111%.
For `Cc1ccc(C2=NN(C(=O)c3cccs3)C(c3ccccc3O)C2)cc1` (configuration not stated), the activity score was inconclusive: -39.4%.
With `CCC(=NCCc1c(C)[nH]c2ccc(C)cc12)C1=C(O)CC(c2ccccc2)CC1=O` (configuration not stated) the activity score was inactive: 104%.
With `Cc1ccc(SCC(=O)Nc2ccc(N3CCN(C)CC3)c(F)c2)cc1` the activity score was active: -81.9%.
For `COc1cccc(NC(=O)Cn2c(=O)oc3cc(S(=O)(=O)N4CCCC4)ccc32)c1`, the activity score was inconclusive: -30.8%.
With `O=C(N/N=C/C(Br)=C\c1ccccc1)c1ccc2nc[nH]c2c1` the activity score was active: -90.4%.
In the case of `Cc1ccc(NC(=O)c2ccccc2)cc1`, the activity score is reported as active: -164%.
For `Cc1ccc(OCC(=O)N2CCCCCCC2)cc1`, the activity score was inconclusive: -54.6%.
In the case of `Cc1cn(-c2cc(C(=O)Nc3ccc(C)c(NC(=O)C(=O)c4c[nH]c5ccccc45)c3)cc(C(F)(F)F)c2)cn1`, the activity score is reported as inactive: 65.6%.
With `COc1ccc2[nH]c3ccccc3c2c1` the activity score was inconclusive: -28.4%.
In the case of `Cc1ccc(SCCc2ccc(C)nc2)cc1`, the activity score is reported as inconclusive: -39.6%.
For `CC(=O)N(Cc1ccco1)c1nc(C(=O)Nc2ccc(Cl)cc2)c(C)s1`, the activity score was active: -105%.
In the case of `COCCN(CC(=O)NC1CCCCC1)C(=O)/C=C/C(=O)c1ccc(OC)cc1O`, the activity score is reported as inactive: 78.8%.
For `O=C1CN(C(=O)COC(=O)c2cccc(OCc3ccccc3)c2)c2ccccc2N1`, the activity score was inconclusive: -47.8%.
With `C(=N\Nc1nc2ccccc2s1)/c1ccccn1` the activity score was inactive: 101%.
In the case of `C/C(=N/NC(=O)c1cccs1)c1cccs1`, the activity score is reported as active: -81.7%.
With `O=C(CSC1=NCCS1)NC(NC(=O)CSC1=NCCS1)c1ccccc1` the activity score was inconclusive: -54.1%.
For `Cc1onc(NC(=O)c2ccc([N+](=O)[O-])o2)c1Br`, the activity score was inconclusive: -56.5%.
With `CC1(C)OC(=CC=Nc2ccc(Cl)cc2)OC1(C)C` the activity score was inactive: 103%.
For `CCOc1nc(-c2ccccc2)ccc1-c1noc(-c2cccs2)n1`, the activity score was inconclusive: -52.5%.
With `O=C(Nc1nc(-c2ccccn2)cs1)c1ccccc1-n1cnnn1` the activity score was inactive: 98.3%.
For `O=C(c1ccc(-c2nc3ccccc3s2)s1)N1CCOCC1`, the activity score was inactive: 100%.
In the case of `COc1ccc(/C=N/Nc2nncc3ccccc23)cc1`, the activity score is reported as inactive: 67.1%.
With `CCc1cc2c(=O)[nH]c(-c3ccccn3)nc2s1` the activity score was inactive: 59.5%.
With `CCOn1c(=O)c(-c2cccc3ccccc23)[n+]([O-])c2ccccc21` the activity score was inconclusive: -36.4%.
For `Cc1ccc(C(=O)Nc2ncc3c(Cl)cccc3n2)cc1`, the activity score was inactive: 64.5%.
In the case of `Cc1ccc(NC(=S)N2CCOCC2)cc1`, the activity score is reported as inconclusive: -39.4%.
For `N#Cc1nc(-c2ccccc2Cl)oc1NCC1CCCO1` (configuration not stated), the activity score was inconclusive: -42.8%.
In the case of `Cc1noc(C)c1CSc1nc2[nH]ncc2c(=O)n1-c1ccccc1`, the activity score is reported as inactive: 50.7%.
For `C/C(=N\NC(=O)c1ccccn1)c1ccc(Cl)cc1`, the activity score was inconclusive: -45%.
In the case of `Cc1ccc(N=Nc2ccc3ccccc3c2O)cc1`, the activity score is reported as inactive: 61.3%.
In the case of `Cc1ccc(-n2nc3c(N4CCC(C(=O)NCCc5cccs5)CC4)nnc(C)c3c2C)cc1`, the activity score is reported as inactive: 90.3%.
For `c1ccc2c(c1)ncn2CCC1CCCCC1`, the activity score was inconclusive: -39.1%.
In the case of `CCOc1cccc(-c2nnc3n2N=C(c2cc(OC)ccc2OC)CS3)c1`, the activity score is reported as inactive: 62.9%.
For `CSCC(=O)Nc1nc(-c2ccc3c(c2)OCCO3)cs1`, the activity score was active: -117%.
For `Cn1nccc1C(=O)N/N=C/c1c(O)ccc2ccccc12`, the activity score was inactive: 91.5%.
With `C/C(=N\NC(=O)c1c([N+](=O)[O-])c(C)nn1C)c1ccc(NC(=O)C2CCCC2)cc1` the activity score was inactive: 80.5%.
With `CCCCCCCn1c2c(c(=N)c3c1CCC3)CCCC2` the activity score was inactive: 82.5%.
In the case of `Cc1ccc(-c2csc(NC(=O)N3CCOCC3)n2)cc1`, the activity score is reported as active: -103%.
In the case of `Cc1cccc(/C(N)=N/OC(=O)c2cccs2)c1`, the activity score is reported as active: -106%.
With `Cc1nnc(-c2cnn(C)c2N)n1Cc1ccccc1F` the activity score was inconclusive: -50%.
In the case of `COc1ccc(NC(=S)c2ccc3ccccc3n2)cc1`, the activity score is reported as active: -69.9%.
In the case of `CCOc1ccc(C(=O)Nc2cccc(C(=O)O)c2C)cc1Cl`, the activity score is reported as inconclusive: -35.9%.
For `COc1ccc(-c2csc3nc(-c4ccccc4)oc(=O)c23)cc1OC`, the activity score was inconclusive: -58.2%.
